The text below walks through data of the supplement of paper PMC11417369.

Some of the results follow.

This assay concerns PF3D7_0420300 AP2 domain 1 (GST-tagged). Description: gcPBM binding intensity (ln(normalized median fluorescence intensity)); higher = stronger DNA binding. The method, boiled down:
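An Agilent 4 × 180k array carrying primer-extended double-stranded 36-bp intergenic genomic probes and negative controls received GST-tagged P. falciparum DNA-binding domains expressed in E. coli, about 25 μg on average, for 1 h. The binding buffer contained 1× PBS, 1% milk, 0.2 mg/ml BSA, 0.5% salmon testes DNA and 0.03% Triton X-100. Binding intensity is the top Masliner-normalised natural-log median intensity across replicate spots of either probe orientation, read after Alexa488 anti-GST antibody staining and a 488 nm scan.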
Turning to “TTTATTCCAGTATTCACACACGAATAACCACATAAC [CACACA_site5104]”, the “gcPBM binding intensity (ln)” value worked out at 9.57.

“CTATACATATTATATAGTACTTTATTATTATGACTA [XGTACX_site1382]”: the “gcPBM binding intensity (ln)” value came to 9.14.

For “ATAATTCTTTATTATAGTACACAAACTTTCAAAACA [XGTACX_site3597]”, the “gcPBM binding intensity (ln)” value is 9.06.

Consider “TATATAAGAGGAAAAAGTACAGAAAAACAAAGAGAA [XGTACX_site2926]”, for which the “gcPBM binding intensity (ln)” value amounted to 9.83.

Turning to “TTTATATCTTATTATAGGAAAATGAATATTTTCTCT [TGCATGCA_negctrl_site478]”, the “gcPBM binding intensity (ln)” value amounted to 8.96.

Regarding “ACAAAACATATATTCTGTACATATATAATGGTGACT [XGTACX_site6796]”, the “gcPBM binding intensity (ln)” value turned out to be 9.4.

As to “AAAAAAGAGGGATACACACAAACATATATATATATA [CACACA_site2243]”, the “gcPBM binding intensity (ln)” value was found to be 9.47.

As for “AAGAAAATATAAATATGTACTTAATAATTTATTTAT [XGTACX_site8100]”, the “gcPBM binding intensity (ln)” value came out at 9.03.

Regarding “AGGATACACGGACACACACACATATATATATATATA [CACACA_site4654]”, the “gcPBM binding intensity (ln)” value worked out at 9.9.

With “TATTAAAATAACATACGTACATAAGTATATAAAAAA [XGTACX_site1769]”, the “gcPBM binding intensity (ln)” value stood at 9.3.

With “TTTATTTTAAAATTTACACACAAAAGGATTTATAGA [CACACA_site2338]”, the “gcPBM binding intensity (ln)” value is 9.11.

As for “TATATTAATTAACAGTGTACAAAAAAAAATAAAAAA [XGTACX_site3702]”, the “gcPBM binding intensity (ln)” value is 9.5.

For the sequence “AAAATAAAAAGAAATTGTACGTATAATAATATATTT [XGTACX_site7593]”, the “gcPBM binding intensity (ln)” value was determined as 9.25.

Consider “ATGGAATATTTCATGATTTTTTTAATTTTTTTATTG [XGTACX_negctrl_site55]”, for which the “gcPBM binding intensity (ln)” value is 9.12.

With “TATCTTTTTTTTAATACACACAAATTTATGAAAGTA [CACACA_site7879]”, the “gcPBM binding intensity (ln)” value stood at 9.2.

As to “ATTTTCATATTTTTATGTACATATTATAAGAATATA [XGTACX_site3691]”, the “gcPBM binding intensity (ln)” value came out at 9.12.

Take “TGTCTTTATATATATTTATTTTTTAGTATTACATAA [CACACA_negctrl_site21]”: the “gcPBM binding intensity (ln)” value was found to be 9.4.

Regarding “TGAAAAAAGAAAAATACACACATATAATATAATATA [CACACA_site2255]”, the “gcPBM binding intensity (ln)” value amounted to 9.7.

“TTTTTTATATTGATATTTATTAAATATGAAATGTTA [GTGCAC_negctrl_site405]”: the “gcPBM binding intensity (ln)” value amounted to 8.78.

On to “TTATATAAGATATTTCGTACACATTCAAAAATTATG [XGTACX_site7375]”, for which the “gcPBM binding intensity (ln)” value is 9.03.

As to “AATAAAATATAAGGGGGTACGGAGAAAGGATACTAT [XGTACX_site7733]”, the “gcPBM binding intensity (ln)” value came out at 9.95.

Turning to “CATACACCCCAACACACACACACACCCATATATAAT [CACACA_site8097]”, the “gcPBM binding intensity (ln)” value worked out at 10.4.

For the sequence “AAAAAAAAAAAAAAAAGTACATATATTATATATATA [XGTACX_site2983]”, the “gcPBM binding intensity (ln)” value worked out at 9.05.

With “CACGCACGCACATACACACACATACACATATAAATA [CACACA_site6907]”, the “gcPBM binding intensity (ln)” value stood at 9.95.

As to “ATGTTGTTCATAAATATATTATTTTTAAATGTACAA [GTGCAC_negctrl_site507]”, the “gcPBM binding intensity (ln)” value was determined as 9.02.

As for “GTATTTAGATGATTAACACACATATGTGTATTAATA [CACACA_site6733]”, the “gcPBM binding intensity (ln)” value was found to be 9.41.

Turning to “ATATATTCACGTTAATGTACACATAATAAATTATAT [XGTACX_site5481]”, the “gcPBM binding intensity (ln)” value worked out at 9.26.

For “ATATATATTATTGAATGTACATAATTATTTAATAGT [XGTACX_site4971]”, the “gcPBM binding intensity (ln)” value is 9.37.

As to “AATTATATTGGTTGTAGTACTAAAAGTAAGTTAATG [XGTACX_site33]”, the “gcPBM binding intensity (ln)” value came out at 9.2.

For “TATTCACTGATATGTTGTACATAAAAAAAATTAAAT [XGTACX_site6128]”, the “gcPBM binding intensity (ln)” value worked out at 9.09.

For “TATTTACACAAAATAAAATATATTATATATATATAT [TGCATGCA_negctrl_site381]”, the “gcPBM binding intensity (ln)” value came out at 8.93.

As for “TTGCACAGATTAATCAAAAATTTTAAACCAAATATA [XGTACX_negctrl_site38]”, the “gcPBM binding intensity (ln)” value stood at 8.97.

With “AGAATAGAATAAAAAACACACATTTACAACATTATT [CACACA_site3894]”, the “gcPBM binding intensity (ln)” value turned out to be 9.76.

In the case of “TATTTATACATAGGTGGTACTACTTTAAACAAAAAA [XGTACX_site5062]”, the “gcPBM binding intensity (ln)” value worked out at 9.06.

As to “TATATGGAGAGATATGCACACTGTATGAATGCCCCC [CACACA_site8853]”, the “gcPBM binding intensity (ln)” value was 10.1.

As to “AAATAAATAATATTCACACATAAAAAAAATGGAGTT [CACACA_site4525]”, the “gcPBM binding intensity (ln)” value worked out at 9.47.

Consider “TTATATTTTTACAAGAGTACATATATATATATATAT [XGTACX_site5383]”, for which the “gcPBM binding intensity (ln)” value is 9.23.

As for “GTGCAATATTTATTTTGTACATATTTATCAATAAAC [XGTACX_site8297]”, the “gcPBM binding intensity (ln)” value is 9.07.

For the sequence “ACATCGATTTATATTCTGCACTGAAGAAACTACAAC [GTGCAC_site9967]”, the “gcPBM binding intensity (ln)” value was 9.32.

With “TTTATTTGATGAACATGTACAAAAAAACAAAGAACA [XGTACX_site823]”, the “gcPBM binding intensity (ln)” value is 9.42.

“TCAAACCAGTTGATGTGTACACATATAGTAATAATT [XGTACX_site6014]”: the “gcPBM binding intensity (ln)” value came out at 9.5.

In the case of “ATTAAATATATTAAATGTACATAATATATATATATA [XGTACX_site5032]”, the “gcPBM binding intensity (ln)” value worked out at 9.15.

“TGATATTTTATTATTAAAATATATACATATATATAT [CACACA_negctrl_site1456]”: the “gcPBM binding intensity (ln)” value was 9.26.

With “ATAAAAATAAAATGGACACACATATATACCTATTTG [CACACA_site5761]”, the “gcPBM binding intensity (ln)” value amounted to 9.7.
